Results published in PubChem BioAssay AID504332 (National Center for Advancing Translational Sciences (NCATS), 2011).
Out of some 350,000 compounds screened, about 31,000 (8.9%) were called active. Inconclusive means that the source gave no clear call. Such entries were picked first, then a sample of the others. Calls come from the whole dose curve; as a rule, active = well fitted inhibition curve with a large enough effect; inconclusive = small, poorly fitted or top-dose-only effect; inactive = no such curve, though single readings can be large or run the other way. Potencies beside an inconclusive call are fits to weak or partial responses and may not hold up.

The molecules below were run against Histone-lysine N-methyltransferase EHMT2 (Homo sapiens) (UniProt Q96KQ7) (assay: qHTS Assay for Inhibitors of Histone Lysine Methyltransferase G9a). Conditions: G9a H3K9 monomethylation, AlphaScreen, 2 h; activity, negative = inhibition: at 59 µM (top of the series) unless noted.
UniProt Q96KQ7, sequence (Q96KQ7 whole entry, looked up): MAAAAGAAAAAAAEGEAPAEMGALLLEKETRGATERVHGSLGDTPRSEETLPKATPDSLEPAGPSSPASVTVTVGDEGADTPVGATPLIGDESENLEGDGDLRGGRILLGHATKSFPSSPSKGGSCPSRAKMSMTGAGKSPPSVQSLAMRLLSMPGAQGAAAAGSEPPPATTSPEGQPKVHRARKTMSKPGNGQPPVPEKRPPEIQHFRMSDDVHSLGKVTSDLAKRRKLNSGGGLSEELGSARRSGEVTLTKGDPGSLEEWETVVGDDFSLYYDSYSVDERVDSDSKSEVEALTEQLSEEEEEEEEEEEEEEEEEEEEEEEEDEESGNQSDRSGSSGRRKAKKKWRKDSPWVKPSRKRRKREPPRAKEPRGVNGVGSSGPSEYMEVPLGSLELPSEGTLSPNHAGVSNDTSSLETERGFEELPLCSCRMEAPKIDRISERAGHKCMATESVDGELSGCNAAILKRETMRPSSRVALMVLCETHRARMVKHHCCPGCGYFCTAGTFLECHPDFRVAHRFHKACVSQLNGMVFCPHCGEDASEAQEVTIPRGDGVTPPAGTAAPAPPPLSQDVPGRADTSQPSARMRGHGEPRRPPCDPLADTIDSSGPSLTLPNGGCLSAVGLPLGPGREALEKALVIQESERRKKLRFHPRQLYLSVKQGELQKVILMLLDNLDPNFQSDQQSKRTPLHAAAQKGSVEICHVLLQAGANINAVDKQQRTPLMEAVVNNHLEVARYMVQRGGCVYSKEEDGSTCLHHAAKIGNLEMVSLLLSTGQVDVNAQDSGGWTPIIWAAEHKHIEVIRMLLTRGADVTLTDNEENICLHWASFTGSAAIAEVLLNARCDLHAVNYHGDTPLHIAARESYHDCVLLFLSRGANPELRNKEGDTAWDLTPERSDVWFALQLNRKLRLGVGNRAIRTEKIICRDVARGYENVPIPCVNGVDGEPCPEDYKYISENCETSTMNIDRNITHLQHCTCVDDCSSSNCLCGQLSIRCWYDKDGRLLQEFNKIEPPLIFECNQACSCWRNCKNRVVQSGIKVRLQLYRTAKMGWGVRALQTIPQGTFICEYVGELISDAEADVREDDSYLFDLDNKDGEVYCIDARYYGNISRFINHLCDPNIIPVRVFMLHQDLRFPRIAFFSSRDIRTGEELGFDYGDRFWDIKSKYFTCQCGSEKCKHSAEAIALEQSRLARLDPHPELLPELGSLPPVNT
In short: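 Methyltransferase reactions run at room temperature for 2 h (20 nM enzyme, 500 nM biotin-H3K9 peptide, 20 uM SAM) after a 15 min compound preincubation; product detected by AlphaScreen beads and anti-H3K9me1 antibody.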
% is set by controls: 0 for no effect and ±100 for the full control effect; potency is the fitted concentration of half-maximal effect; tags give direction and shape of the fitted curve.
Note: nearly all actives have a fitted effect of over 75% in size.

Q: `COC(=O)c1ccc(C2C(C(C)=O)=C(O)C(=O)N2CCO)cc1` (stereo not drawn) was tested. Which Potency did it give?
A: inconclusive: 56.2 µM [inhibitor, partial curve, poor fit]

Q: For `S=c1[nH]nc(-c2ccccc2)n1/N=C/c1ccc(Cl)cc1`, which Potency is on record?
A: active: 2.51 µM

Q: How did the Potency turn out when `Clc1ccc(-c2ccc(CNCc3ccccn3)o2)cc1` was run?
A: inconclusive: 79.4 µM [inhibitor, single point]

Q: With `CCCCNC(=O)C1CCN(C(=O)N2CC(C)Oc3ccc(Cl)cc32)CC1` (stereo not drawn) as the molecule, how does the Potency read?
A: active: 8.91 µM

Q: How did the Potency turn out when `CCOC(=O)c1c(NC(=O)COC(=O)CCNS(=O)(=O)c2ccccc2)sc(C(=O)N(C)C)c1C` was run?
A: inconclusive: 44.7 µM [inhibitor, partial curve]

Q: How did the Potency turn out when `CCCN(CCC)CCCNC(=S)Nc1ccc2nc(N3CCN(CC)CC3)cc(C)c2c1` was run?
A: active: 50.1 µM

Q: How did the Potency turn out when `CCOC(=O)N1CCc2c(sc(NCc3sccc3C)c2C(=O)Nc2cc(OC)ccc2OC)C1` was run?
A: active: 2.82 µM

Q: For `CCOc1ncccc1C(=O)OCc1ccccc1`, which Potency is on record?
A: inconclusive: 3.16 µM [inhibitor, partial curve, poor fit]

Q: How did the activity, negative = inhibition turn out when `O=C1CC(c2ccccc2)n2nc(N3C(=O)CCC3=O)nc2N1` (stereo not drawn) was run?
A: inactive: 21.7% [at 2.33 µM]

Q: Which Potency does the source give for `O=C(/C=C/c1cccs1)NC(=S)Nc1ccc(C(=O)O)cc1` here?
A: inconclusive: 56.2 µM [inhibitor, partial curve]

Q: For `COc1cccc(NC(=O)CSc2cc(=O)n(C)c3ccc(Cl)cc23)c1`, which Potency is on record?
A: inconclusive: 28.2 µM [inhibitor, partial curve, poor fit]

Q: `Cc1nc(NCc2ccccc2)[nH]c(=O)c1CCC(C)C` was tested. Which Potency did it give?
A: inconclusive: 0.631 µM [inhibitor, full curve, poor fit]

Q: Which activity, negative = inhibition does the source give for `Cc1ccc(CN2C(=O)C(Cc3ccccc3)Nc3ncnc(N4CCN(c5ccccc5)CC4)c32)cc1` (stereo not drawn) here?
A: inactive: 6.5% [at 2.33 µM]

Q: How did the Potency turn out when `Cc1c(C(=O)Nc2ccc(-c3nnc4n3CCCCC4)cc2)oc2c1ccc1ccccc12` was run?
A: active: 50.1 µM

Q: `Cc1nnc(NC(=O)c2ccncc2)s1` was tested. Which Potency did it give?
A: inactive

Q: For `CS(=O)(=O)Nc1cccc(-c2cncnc2Nc2ccc(F)cc2)c1`, which activity, negative = inhibition is on record?
A: inactive: -3.19% [at 0.501 µM]

Q: With `CC1(C)Cc2c(C#N)c(NCCc3ccccc3)nc(-c3ccco3)c2CO1` as the molecule, how does the Potency read?
A: inactive

Q: Which Potency does the source give for `Cc1cccc(N2CCN(C(=O)c3cc4c(=O)n(C)c5ccccc5c4n3C)CC2C)c1` (stereo not drawn) here?
A: active: 44.7 µM

Q: How did the Potency turn out when `Cc1sc(NC(=O)CN2CCCC2)nc1-c1ccc2c(c1)CCN2C(=O)c1cccc(F)c1` was run?
A: inconclusive: 89.1 µM [inhibitor, single point]

Q: For `O=C(CN1CCN(Cc2ccccc2)C1=O)NCc1ccc(Cl)cc1`, which Potency is on record?
A: inactive

Q: For `O=C(c1ccc(NS(=O)(=O)c2cccc([N+](=O)[O-])c2)cc1)N1CCN(C(=O)c2ccco2)CC1`, which activity, negative = inhibition is on record?
A: inactive: 4.4% [at 12.7 µM]

Q: How did the Potency turn out when `O=C(O)CC(Cc1ccccc1)(C(=O)O)c1ccccc1` (stereo not drawn) was run?
A: inactive

Q: Which Potency does the source give for `CC(=O)C1=C(C)NC(SCC(=O)c2ccc(C)cc2)=C(C#N)C1c1ccco1` (stereo not drawn) here?
A: inconclusive: 3.55 µM [inhibitor, single point]

Q: `CCOC(=O)c1cc(C(O)(C(F)(F)F)C(F)(F)F)c(/N=C/N(C)C)o1` was tested. Which Potency did it give?
A: inconclusive: 89.1 µM [inhibitor, single point]

Q: `N#C/C(=C\c1ccc(F)cc1)C(=O)NCC1CCCO1` (stereo not drawn) was tested. Which Potency did it give?
A: inconclusive: 20 µM [inhibitor, partial curve, poor fit]

Q: For `CN(NC(=O)c1ccco1)c1nc2ccccc2nc1C(F)(F)F`, which Potency is on record?
A: inconclusive: 79.4 µM [inhibitor, partial curve, poor fit]

Q: `CCOc1ccccc1NC(=O)CN1C(=O)COc2ccc(S(=O)(=O)N3CCCCCC3)cc21` was tested. Which Potency did it give?
A: inactive

Q: `CC1CN2C(c3ccc(Cl)cc3)=CSC2=N1` (stereo not drawn) was tested. Which Potency did it give?
A: active: 44.7 µM

Q: `CCOc1ccccc1NC(=O)Cc1coc2c(C)c(C)ccc12` was tested. Which Potency did it give?
A: inactive

Q: `COc1ccccc1-c1nnc2sc(-c3cnccn3)nn12` was tested. Which Potency did it give?
A: inconclusive: 0.447 µM [inhibitor, single point]

Q: `Cc1nc(NC(=O)CN2CCOCC2)sc1C(=O)N(C)C` was tested. Which Potency did it give?
A: inconclusive: 70.8 µM [inhibitor, partial curve]

Q: Which Potency does the source give for `CCN(C(=O)COc1cccc2cccnc12)C1CCS(=O)(=O)C1` (stereo not drawn) here?
A: inconclusive: 44.7 µM [inhibitor, partial curve, poor fit]

Q: With `COc1cccc(N2CCN(Cc3nc4ccccc4c(=O)[nH]3)CC2)c1` as the molecule, how does the Potency read?
A: inconclusive: 79.4 µM [inhibitor, single point]

Q: For `CCOc1ccc(C2C(C#N)=C(N)N(N(C)C)C3=C2C(=O)CC(C)(C)C3)cc1` (stereo not drawn), which Potency is on record?
A: active: 35.5 µM

Q: How did the Potency turn out when `Cc1ccc2nc(-c3ccccc3)cc(C(=O)N3CCN(c4ccccc4O)CC3)c2c1` was run?
A: active: 50.1 µM

Q: For `COc1ccc(/C(O)=C2/C(=O)C(=O)N(c3ccccn3)C2c2ccc(C(C)C)cc2)cc1` (stereo not drawn), which Potency is on record?
A: inconclusive: 89.1 µM [inhibitor, single point]

Q: `Cc1ccc(C2NCCS2)cc1` (stereo not drawn) was tested. Which Potency did it give?
A: active: 44.7 µM

Q: For `CCOC(=O)c1c(C)n(C)c2cc(Br)c(O)c(O)c12`, which Potency is on record?
A: active: 0.355 µM

Q: Which activity, negative = inhibition does the source give for `Cc1ccc(NC(=O)Cn2cnc3c(=O)n(C)c(=O)n(C)c32)c(C)c1` here?
A: inconclusive: -66.5% [inhibitor]

Q: With `O=C(NCc1n[nH]c(=S)n1-c1ccccc1)c1ccc(S(=O)(=O)N2CCOCC2)cc1` as the molecule, how does the activity, negative = inhibition read?
A: inconclusive: -107% [inhibitor]

Q: How did the Potency turn out when `CC(C)(C)c1cc(-c2csc(Nc3ccccc3)[n+]2Cc2ccc(C(=O)O)cc2)cc(C(C)(C)C)c1O` was run?
A: active: 39.8 µM

Q: Which Potency does the source give for `C/C(CCc1ccc2c(c1)OCO2)=N\NC(=O)c1ccc(C)cc1C` here?
A: inconclusive: 39.8 µM [inhibitor, partial curve, poor fit]

Q: Which Potency does the source give for `COCCn1nnnc1CN1CCC(O)(c2cccc(C(F)(F)F)c2)CC1` here?
A: active: 79.4 µM

Q: `O=S(=O)(c1ccccc1)N1CCN(c2nc(-c3cccnc3)nc3ccccc23)CC1` was tested. Which activity, negative = inhibition did it give?
A: inactive: 2.81% [at 0.501 µM]

Q: How did the Potency turn out when `CSc1ncc(Cl)c(C(=O)Nc2c(C(=O)c3ccc(C)c(F)c3)oc3ccccc23)n1` was run?
A: inactive

Q: With `CC(C)OC(=O)COc1cc(O)c2c(=O)cc(-c3ccccc3)oc2c1` as the molecule, how does the Potency read?
A: inconclusive: 50.1 µM [inhibitor, partial curve, poor fit]

Q: For `COc1ccc(/C(N)=N/OC(=O)C2CCC(=O)N2S(=O)(=O)c2ccc(C)cc2)cc1OC` (stereo not drawn), which Potency is on record?
A: inactive

Q: With `COc1cccc(NS(=O)(=O)NC(=O)c2c(C)[nH]c3ccccc23)c1` as the molecule, how does the Potency read?
A: inconclusive: 79.4 µM [inhibitor, single point]

Q: With `CN(Cc1nc(-c2ccncc2)no1)S(=O)(=O)c1ccccc1` as the molecule, how does the Potency read?
A: inconclusive: 44.7 µM [inhibitor, partial curve, poor fit]

Q: Which Potency does the source give for `Cc1cccc(N2CCN(c3ccc(NC(=O)c4ccccc4)cc3C(=O)O)CC2C)c1` (stereo not drawn) here?
A: inconclusive: 28.2 µM [inhibitor, single point]

Q: With `CN1CCN(c2ccc(S(=O)(=O)N3CCCCC3)cc2NC(=O)/C=C/c2ccc(Cl)c([N+](=O)[O-])c2)CC1` as the molecule, how does the Potency read?
A: active: 35.5 µM

Q: For `COc1ccc(CN(C)Cc2c(O)ccc3cc(Br)ccc23)cc1OC`, which Potency is on record?
A: active: 25.1 µM

Q: With `O=C(CSc1ncccn1)N1CCN(S(=O)(=O)c2ccccc2)CC1` as the molecule, how does the activity, negative = inhibition read?
A: inconclusive: -63% [inhibitor]

Q: Which Potency does the source give for `Cc1cccc(OC(=O)c2cc(-c3ccc4c(c3)OCCO4)on2)c1C` here?
A: inconclusive: 0.708 µM [inhibitor, partial curve, poor fit]

Q: With `COc1ccc(C(CC(=O)N2CCCC2)c2c(OC)cc(OC)c3c(-c4ccccc4)cc(=O)oc23)cc1` (stereo not drawn) as the molecule, how does the activity, negative = inhibition read?
A: inactive: 14.3% [at 12.7 µM]

Q: How did the Potency turn out when `Cc1cc(Nc2cccc(Cl)c2)nc2ccc(NC(=O)c3cccc(N(C)C)c3)cc12` was run?
A: inconclusive: 39.8 µM [inhibitor, single point]

Q: For `CCOC(=O)C1C(=O)C=C(c2cccc(NS(C)(=O)=O)c2)CC1c1ccco1` (stereo not drawn), which Potency is on record?
A: inconclusive: 25.1 µM [inhibitor, single point]

Q: How did the activity, negative = inhibition turn out when `CCCS(=O)(=O)N1CCC(N2CCN(Cc3ccc(F)cc3)C(=O)C2=O)CC1` was run?
A: inactive: -3.65% [at 12.7 µM]

Q: Which Potency does the source give for `Cc1cc(O)c2c(C)c(CC(=O)N3CCCCC3)c(=O)oc2c1` here?
A: inconclusive: 7.94 µM [inhibitor, partial curve, poor fit]

Q: `COc1ccc(-c2noc(-c3nnn(-c4ccc(C(C)C)cc4)c3C)n2)cc1OC` was tested. Which Potency did it give?
A: inactive

Q: How did the Potency turn out when `Cc1ncc(CO)c2c1Oc1nc(-c3ccc(F)cc3)nc(SCc3ccc(F)cc3Cl)c1C2` was run?
A: inactive

Q: Which Potency does the source give for `CC1CCN(S(=O)(=O)c2ccc(NC(=O)CN3CCCCCC3)cc2)CC1` here?
A: inconclusive: 89.1 µM [inhibitor, single point]

Q: `Cc1ccc(S(=O)(=O)NCC(Nc2cccc(Cl)c2)c2ccccc2)cc1` (stereo not drawn) was tested. Which Potency did it give?
A: inconclusive: 3.55 µM [inhibitor, partial curve, poor fit]

Q: `COc1cc(C2C(C#N)=C(N)Oc3cc(C)oc(=O)c32)cc2c1OCO2` (stereo not drawn) was tested. Which Potency did it give?
A: inconclusive: 0.891 µM [inhibitor, single point]

Q: Which Potency does the source give for `Cc1ccccc1Cn1c2ccccc2c2cnn(CC(=O)N3CCC(C)CC3)c(=O)c21` here?
A: inconclusive: 7.94 µM [inhibitor, partial curve, poor fit]

Q: Which Potency does the source give for `COc1cc(OC)c([N+](=O)[O-])cc1/C=N/NC(=O)c1ccncc1` here?
A: inconclusive: 79.4 µM [inhibitor, single point]

Q: Which Potency does the source give for `CCOC(=O)c1c(C)[nH]c(C=Nc2ccccc2)c1O` here?
A: inconclusive: 3.55 µM [inhibitor, single point]

Q: Which Potency does the source give for `Cc1ccc(CN(C)CC(=O)Nc2ccc3c(c2)CCC3)cc1` here?
A: inconclusive: 44.7 µM [inhibitor, partial curve, poor fit]
